Measured values taken from patent EP1627918A1 (Beth Israel Deaconess Medical Center, Inc., dated 2006).

Biological target: T1, human IL-15Rα subunit (human, UniProt Q13261 31-267)
T1 construct: whole, on cells; Other IL-15 receptor subunits may be present on the same cells; also called IL-15 receptor alpha; IL-15Rα chain
Assay: flow cytometry on PHA-activated human PBMCs, anti-FLAG biotinylated Ab and streptavidin-RED670

T1 sequence (Q13261 31-267): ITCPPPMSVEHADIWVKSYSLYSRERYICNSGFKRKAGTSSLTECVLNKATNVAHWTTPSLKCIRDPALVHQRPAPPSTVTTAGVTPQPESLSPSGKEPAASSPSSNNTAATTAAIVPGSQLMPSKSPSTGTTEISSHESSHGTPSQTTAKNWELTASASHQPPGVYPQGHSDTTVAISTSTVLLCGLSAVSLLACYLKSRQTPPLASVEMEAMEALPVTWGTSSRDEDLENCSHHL

B1: FLAG-HMK-IL-15 (Q149D; Q156D) double mutant protein (ligand, not shown: small tags and cut ends)
chain: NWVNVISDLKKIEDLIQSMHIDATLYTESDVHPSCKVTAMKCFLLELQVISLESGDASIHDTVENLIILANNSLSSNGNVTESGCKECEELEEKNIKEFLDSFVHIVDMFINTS
notes: also called FLAG-HMK-IL-15 double mutant; double mutant IL-15
  binding result: binds
